# Article PMC4336329 (PLoS ONE, 2015)
# Out of some 310,000 compounds screened, about 14,000 (4.5%) showed an effect of 50% or more. The effect is printed as a negative number. The list shows a part of the results.
# Target: human ether-à-go-go-related gene (hERG) potassium channel (human, UniProt Q12809)
# Assay: primary screen, population patch clamp on CHO cells stably expressing hERG
# 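Also: peak tail current of the secondary pulse compared with the same well before compound.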
# Sequence of human ether-à-go-go-related gene (hERG) potassium channel (Q12809 whole entry, looked up): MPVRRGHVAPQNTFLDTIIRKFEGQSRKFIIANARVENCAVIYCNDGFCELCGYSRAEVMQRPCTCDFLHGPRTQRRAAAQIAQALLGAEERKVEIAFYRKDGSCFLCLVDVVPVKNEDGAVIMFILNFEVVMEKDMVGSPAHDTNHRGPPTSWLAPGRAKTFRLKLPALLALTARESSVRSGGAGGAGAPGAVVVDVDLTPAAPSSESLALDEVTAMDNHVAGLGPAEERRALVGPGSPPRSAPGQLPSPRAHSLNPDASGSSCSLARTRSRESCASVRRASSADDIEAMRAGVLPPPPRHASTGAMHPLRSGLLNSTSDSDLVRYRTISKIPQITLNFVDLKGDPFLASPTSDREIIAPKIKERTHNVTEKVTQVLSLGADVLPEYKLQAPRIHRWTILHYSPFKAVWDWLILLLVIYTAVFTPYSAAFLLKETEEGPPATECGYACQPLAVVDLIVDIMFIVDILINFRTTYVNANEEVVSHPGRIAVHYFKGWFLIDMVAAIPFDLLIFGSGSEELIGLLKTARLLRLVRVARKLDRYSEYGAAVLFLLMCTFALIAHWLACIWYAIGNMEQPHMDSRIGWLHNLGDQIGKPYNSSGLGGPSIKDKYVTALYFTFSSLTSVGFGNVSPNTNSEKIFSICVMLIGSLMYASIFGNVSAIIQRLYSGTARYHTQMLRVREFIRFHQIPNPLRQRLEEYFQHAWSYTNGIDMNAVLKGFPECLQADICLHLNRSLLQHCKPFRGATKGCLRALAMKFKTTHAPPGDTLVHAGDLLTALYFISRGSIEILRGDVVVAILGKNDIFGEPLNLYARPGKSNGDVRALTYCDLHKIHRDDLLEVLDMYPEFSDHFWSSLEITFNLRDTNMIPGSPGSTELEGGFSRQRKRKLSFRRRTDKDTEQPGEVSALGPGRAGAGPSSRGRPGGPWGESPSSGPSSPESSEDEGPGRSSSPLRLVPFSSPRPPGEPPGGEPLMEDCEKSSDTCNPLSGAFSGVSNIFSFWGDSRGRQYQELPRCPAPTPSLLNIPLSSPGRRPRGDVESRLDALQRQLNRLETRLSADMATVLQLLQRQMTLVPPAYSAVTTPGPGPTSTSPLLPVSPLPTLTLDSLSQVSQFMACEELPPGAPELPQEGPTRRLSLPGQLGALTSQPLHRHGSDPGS
row,Compound,"hERG current change (%, negative = inhibition) at 10uM"
1,CC(C)(C)OC(=O)N/N=C\C=C\c1ccc2c(c1)OCO2,7.04%
2,CCOC(=O)N1CCN(C(=O)c2ccc(N(C)S(C)(=O)=O)cc2)CC1,11.8%
3,COC(=O)C1=C(C)N(CCCC(=O)O)C(=O)NC1c1ccc2c(c1)OCO2 (stereo not shown),3.66%
4,Cc1ccccc1C(=O)NC(=S)Nc1ccccc1[N+](=O)[O-],18.1%
5,COCCCn1c(=O)c2sccc2n(Cc2ccc(C)cc2)c1=O,14.1%
6,Cc1ccc(S(=O)(=O)N2CCc3cc4c(cc3C2C)OCCCO4)cc1 (stereo not shown),-0.487%
7,Cc1cc[n+](-c2[nH]c(=O)sc2/C=N/N=C(\[O-])c2ccncc2)cc1,5.61%
8,CCOc1ccc(-c2nc(N)ncc2Oc2ccc(OC)cc2)c(O)c1,-2.1%
9,Cc1ccc(Cn2c(CCC(=O)O)nc3ncccc3c2=O)cc1,13.4%
10,CC(=O)Nc1ccccc1OCC(=O)NC1CCCCC1C (stereo not shown),8.59%
11,O=C(COC(=O)C12CC3CC(CC(C3)C1)C2)Nc1ccccc1F,20.3%
12,CCC(CO)NCc1ccc(OCC(O)c2ccccc2)c(OC)c1.Cl (stereo not shown),12.4%
13,CC(NC(=S)Nc1ccccc1)C1COc2ccccc2O1 (stereo not shown),1.53%
14,O=C(CSc1ncccn1)N/N=C/c1ccc2c(c1)OCO2,-5.21%
15,CCc1ccc(N(CC(=O)NC2CCCC2)C(=O)CCC(=O)Nc2cc(C)on2)cc1,-24.8%
16,Cc1ccc(/C=C2\SC(=S)N(CCC(=O)Nc3ccc(O)cc3)C2=O)cc1,1.58%
17,COc1ccc(OC)c(S(=O)(=O)N2CCCC(C(=O)N3CCOCC3)C2)c1 (stereo not shown),20.5%
18,CCc1sc(C(=O)Nc2ccc(NC(C)=O)cc2)cc1C,14%
19,N#Cc1c(-n2ccnc2)cccc1-n1ccnc1,-15.6%
20,Cc1ccnc(N2CCC(C(=O)Nc3ccc4c(c3)OCO4)CC2)n1,15.3%
21,CC1(C)CC(=O)C2=C(C1)OC(N)=C(C#N)C2C1CC=CCC1 (stereo not shown),3.77%
22,Cn1c(SCC(=O)NCc2ccco2)nc2ccccc2c1=O,-23.6%

row,Compound,"hERG current change (%, negative = inhibition) at 10uM"
1,CC(C)c1ccccc1-n1c(SCC(=O)c2ccc3c(c2)NC(=O)CO3)nc2ccccc2c1=O,11.5%
2,CCCN(Cc1ccc(N(CC)CC)cc1)CC1CC1,-9.04%
3,CC(/C=N/NC(=O)c1nnn(-c2nonc2N)c1C(C)C)=C\c1ccco1,8.07%
4,CC(CNC(=O)c1cc(COc2ccc3ncccc3c2)on1)c1ccccc1 (stereo not shown),9.51%
5,COc1cc(C(=O)N2CCN(C(=O)c3ccco3)CC2)c([N+](=O)[O-])cc1OC,10.3%
6,COc1ccccc1NC(=O)N1CCCC1C(=O)Nc1ccc2c(c1)OCO2 (stereo not shown),0.956%
7,O=c1c2ccccc2ncn1Cc1ccco1,-19.8%
8,O=C(Nc1cc(C(F)(F)F)ccc1N1CCOCC1)C1=COCCO1,-14.3%
9,CN(C)S(=O)(=O)N1CCC(Oc2cccc(C(=O)NC3CCCCCC3)c2)CC1,-30.8%
10,O=CN1CCN(CC(O)Cn2c3ccccc3c3ccccc32)CC1 (stereo not shown),-23.6%
11,CC(=O)Nc1nnc(CCS(=O)(=O)c2ccc(C)cc2)s1,7.13%
12,O=C(NCCN1CCOCC1)C(=O)NCC1OCCCN1S(=O)(=O)c1cc(F)ccc1F (stereo not shown),0.602%
13,CSc1sccc1/C=C(/C#N)C(=O)c1ccco1,2.38%
14,CCCCNC(=O)CSc1nc(Cc2ccccc2)nc2ccccc12,-14.7%
15,COCCCNc1oc(COc2ccc(Cl)cc2Cl)nc1C#N,-15.9%
16,N#CCCN(C(=O)COC(=O)c1ccc2c(=O)n3c(nc2c1)CCC3)c1ccccc1,31.8%
17,O=C(c1ccco1)c1nc2c(n1O)CCCCC2,-3.43%
18,CSc1ccc(C(=O)C2CCCN(C(=O)c3cc(C)n(C)n3)C2)cc1 (stereo not shown),-7.88%
19,O=C(CNC(=O)c1ccccc1)OCc1nc2ccccc2s1,2.88%
20,Clc1ccc(C[n+]2cc(-c3ccccc3)n3c2CCC3)cc1Cl.[Cl-],-45.1%
21,COc1ccc(N2C(=NC(=O)C3CCCCC3)SC3CS(=O)(=O)CC32)cc1OC (stereo not shown),-24.9%
22,N#CC1=C(N)N(c2ccccc2)C(c2ccco2)C1(C#N)C#N (stereo not shown),-16.1%

row,Compound,"hERG current change (%, negative = inhibition) at 10uM"
1,CN(Cc1ccco1)C(=O)c1ccc(OC2CCN(Cc3ccccn3)CC2)cc1,-6.63%
2,CC(=O)c1ccc(S(=O)(=O)Nc2ccccc2C(=O)NC2CC2)cc1,-2.83%
3,CC(C)c1cccc(C(C)C)c1NC(=O)CN1C(=O)NC2(CCCC2)C1=O,14.8%
4,O=C(O)CN1CCN(Cc2cccc(Cl)c2)C1=O,33.6%
5,COc1ccc([C@@H]2[C@@H]3C(=O)N(C(C)(C)C)C(=O)[C@@H]3[C@]3(Cc4ccccc4)C(=O)N(c4cccc(Br)c4)C(=O)N23)cc1,15.3%
6,O=C(COC(=O)Cc1ccc(Cl)cc1)Nc1c(F)cccc1F,1.06%
7,O=c1ccnc(Nc2ccc3c(c2)OCCO3)[nH]1,21.5%
8,c1ccc(Cn2ccnc2SCc2nnc(-c3ccccc3)o2)cc1,-9.41%
9,Cc1ccc(C(=O)Nc2cnc3ccccn3c2=O)cc1,-17.2%
10,CCOc1ccccc1NC(=O)NCCc1c[nH]c2ccccc12,-11.3%
11,COc1ccc(NC(=O)CCCN2C(=O)CN(C)C2=O)cc1Cl,8.87%
12,COc1ccc([C@H]2CC(=O)C=C(c3ccc(OC(F)(F)F)cc3)C2)cc1,5.59%
13,Cl.Clc1ccc2nc3c(c(-c4ccccc4)c2c1)CNCC3,-37.3%
14,Cc1ccc(S(=O)(=O)N2CCOCC2)cc1NC(=O)COC(=O)c1ccc2c(c1)OCO2,4.06%
15,CC(=O)C1C2c3ccccc3OC1(C)N=c1s/c(=C/c3cnn(C)c3)c(=O)n12 (stereo not shown),-5.74%
16,COc1ccc(/C=N/Nc2nc(N)cc(Cl)n2)cc1OC,-5.15%
17,CCOC(=O)C1CCN(S(=O)(=O)c2ccc3[nH]c(=O)oc3c2)CC1,-30.9%
18,CSc1nc(O)c(C2OC(=O)c3ccccc32)c(=O)[nH]1 (stereo not shown),22.5%
19,Cc1ccc(S(=O)(=O)N(C)C)cc1NC(=O)COc1ccc(-c2nnco2)cc1,5.6%
20,COc1ccc(C(=O)C(Sc2nnc(C)c(=O)[nH]2)c2ccc(OC)cc2)cc1 (stereo not shown),-12.3%
21,CC(=O)Nc1ccc(O)cc1[N+](=O)[O-],13.4%
22,CCCc1n[nH]c2c1/C(=N/O)CC(c1ccccc1)C2 (stereo not shown),2.73%

row,Compound,"hERG current change (%, negative = inhibition) at 10uM"
1,CN=C1SC(C(=O)O)CC(=O)N1C (stereo not shown),19.1%
2,CCC(C)NC(=O)/C=C/c1cccs1 (stereo not shown),0.622%
3,O=S(=O)(c1ccc(Cl)cc1)N1CCN(CCc2ccncc2)CC1,-55.3%
4,O=C1CC(=O)N(Cc2ccccc2)C(=O)N1CCCCCCN1C(=O)CC(=O)N(Cc2ccccc2)C1=O,4.33%
5,COc1ccc(N2CCN(C(=O)CSc3nnc4c5cc(C)ccc5n(C)c4n3)CC2)cc1,-13.9%
6,Cc1cc(C(=O)NN=C2CCCC2)c2ccccc2n1,7.61%
7,Cc1cc(-c2cccs2)n[nH]1,5.82%
8,CCS(=O)(=O)N1CCN(Cc2ccncc2)CC1.O=C(O)C(=O)O,13.2%
9,CCOC(=O)C1(Cc2cccc(F)c2)CCN(Cc2c(C)nn(CC)c2C)CC1,-41.4%
10,O=C(Cc1ccsc1)Nc1ccccc1F,7.41%
11,COC(=O)c1cccc(NC(=O)CSc2nnc(COc3ccc(C#N)cc3)n2-c2ccccc2)c1,-73.5%
12,CC(=O)C1=C(O)C(=O)N(c2cccc(C(=O)O)c2)C1c1ccc(F)cc1 (stereo not shown),17.9%
13,CN(C)/N=C/c1ccc(OS(=O)(=O)c2ccccc2)cc1,8.55%
14,CCOc1ccc(/C=N/NC(=O)c2nnn(-c3nonc3N)c2COc2ccc(F)cc2)cc1,13.4%
15,Cc1ccc(/C=C2\C(=N)N3N=C(CC(=O)N4CCCCC4)SC3=NC2=O)cc1,17.4%
16,N#C/C(=C\c1ccc(-c2cccc(C(F)(F)F)c2)o1)C(=O)Nn1cnnc1,-6.02%
17,O=c1[nH]c(CN2CCN(S(=O)(=O)c3cccs3)CC2)nc2c(Br)cc(Br)cc12,2.59%
18,Cc1ccnc(NS(=O)(=O)c2ccc(NC(=O)Cc3c(F)cccc3Cl)cc2)n1,11.4%
19,Cc1nc2ccccc2n1CC(=O)NC(C)C1CC2CCC1C2 (stereo not shown),9.76%
20,CC(C)(C)NC(=O)NC(=O)COC(=O)C1CC(=O)N(Cc2ccccc2)C1 (stereo not shown),7.58%
21,CC(=O)OCC1=C(C(=O)O)N2C(=O)C(NC(=O)C(C)Cn3nc(C)c(Cl)c3C)C2SC1 (stereo not shown),8.47%
22,Cc1cccc(NC(=O)COC(=O)c2cccc3c2C(=O)c2ccccc2C3=O)c1C,-6.2%
